Assay results from PubChem BioAssay AID2546 (National Center for Advancing Translational Sciences (NCATS), 2010).
“And” between values parts separate entries of the source, which are not always exact repeats. Equal values may be shown once. Among all 310,000 compounds or so, about 11,000 (3.5%) were called active. The shares of active, inactive and inconclusive entries below differ from those in the screen. Calls come from the whole dose curve; as a rule, active = well fitted inhibition curve with a large enough effect; inconclusive = small, poorly fitted or top-dose-only effect, or effect the other way; inactive = flat fitted curve, though single readings scatter. Where the call is inconclusive, the potency comes from a doubtful curve fit.
% is set by controls: 0 for no effect and ±100 for the full control effect; potency is the fitted concentration of half-maximal effect; tags give direction and shape of the fitted curve.

Test: VP16 counterscreen qHTS for inhibitors of ROR gamma transcriptional activity;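 note: Gal4-VP16 expression switched on by copper sulfate through the metallothionein promoter; nearly all actives have a fitted effect of over 50% in size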
Settings: Drosophila S2 Gal4-VP16 UAS-luciferase, luminescence, 20 h; activity, negative = inhibition: at 53.6 µM (top of the series)
For `COCCn1c(-c2ccccc2)cnc1N`, the Potency was inconclusive: 31.6 µM [inhibitor, single point].
For `COc1ccc(CCN(C)C2CCCN(C(=O)Cn3cccn3)C2)cc1OC` (configuration not stated), the Potency was inconclusive: 2.82 µM [inhibitor, partial curve].
For `FC(F)(F)c1cccc(N2CCN(C(=S)NC3CCCC3)CC2)c1`, the Potency was inconclusive: 22.4 µM [inhibitor, single point].
With `COC(=O)C(C)NC(=S)N1CCN(c2c(F)cc3c(=O)c(C(=O)O)cn(C4CC4)c3c2OC)CC1C` (configuration not stated) the Potency was inconclusive: 5.62 µM [inhibitor, single point].
With `Cc1ccc(S(=O)(=O)NC(=O)COc2ccccc2C)c(C)c1` the Potency was inconclusive: 28.2 µM [inhibitor, single point].
With `CN1C(=O)CSc2ccc(NC(=O)Nc3ccccn3)cc21` the Potency was inconclusive: 1.41 µM [inhibitor, full curve, poor fit].
For `O=C(Nc1nc(-c2ccccc2)cs1)c1ccc(=O)[nH]c1`, the “activity, negative = inhibition” value was inactive: 2.79%.
In the case of `CCOC(=O)c1cc(-c2ccccc2)nn1-c1ccccn1`, the “activity, negative = inhibition” value is reported as inactive: -4.6%.
With `NS(=O)(=O)c1ccc(NC(=O)Nc2ccc(Cl)cc2)cc1` the Potency was inconclusive: 25.1 µM [inhibitor, single point].
For `CCN1/C(=C/c2cc[n+](CCCS(=O)(=O)[O-])c3ccccc23)Sc2ccccc21`, the “activity, negative = inhibition” value was inactive: -3.55%.
In the case of `CC1CCN(C(=O)N2c3ccccc3Sc3ccccc32)CC1`, the “activity, negative = inhibition” value is reported as inactive: -2.82%.
With `CCOc1ccccc1NC(=O)C(OC(=O)c1cc(C)oc1C)c1ccccc1` (configuration not stated) the Potency was inconclusive: 35.5 µM [inhibitor, single point].
In the case of `CCCCOC(=O)c1ccc(NC(=O)CSCc2n[nH]c(=O)[nH]2)cc1`, the “activity, negative = inhibition” value is reported as inactive: -10.5%.
With `N/C(=N\OC(=O)c1cccc(F)c1)c1ccccn1` the Potency was inconclusive: 25.1 µM [inhibitor, single point].
With `CCN(c1ccccc1)S(=O)(=O)c1cc(C(=O)Nc2ccc(Br)cc2)ccc1F` the Potency was active: 12.6 µM.
For `O=C(Cc1cccs1)N/N=C/c1ccccn1`, the Potency was inconclusive: 35.5 µM [activator, single point].
In the case of `O=C(c1cc2c(s1)CCC2)N1CCN(c2ccccc2)CC1`, the Potency is reported as inconclusive: 35.5 µM [inhibitor, single point].
With `CSc1ccc(NS(=O)(=O)c2ccc(-n3cnnn3)cc2)cc1` the Potency was inconclusive: 35.5 µM [inhibitor, single point].
In the case of `Cc1ccc(NC(=O)CCS(=O)(=O)c2cccc3nonc23)c(Br)c1`, the “activity, negative = inhibition” value is reported as inactive: -0.446%.
For `CC(C)COc1ncnc2c1sc1nc3c(cc12)COC(C)(C)C3`, the Potency was inconclusive: 2.51 µM [activator, full curve, poor fit].
For `Cc1ccc(C23CC4CC(CC(C(N)=O)(C4)C2)C3)cc1`, the “activity, negative = inhibition” value was inactive: 19.6%.
In the case of `COC(=O)c1sccc1N/N=C/c1cccc(Oc2ccccc2)c1`, the Potency is reported as inconclusive: 0.316 µM [activator, full curve].
For `CCCCCCCC[N+](CCCCCCCC)(CCCCCCCC)CCCCCCCC`, the Potency was active: 2 µM.
With `C/C=C(/C)C(=O)Nc1cccc(C2=NOC3(C2)C[C@@H](C(N)=O)N(C(=O)c2ccc(OC)cc2)C3)c1` (some centres not stated) the Potency was inconclusive: 0.0005 µM [inhibitor, full curve, poor fit].
For `CCOC(=O)C1(CC2CCCCO2)CCN(Cc2nccn2-c2cccc(C)c2)CC1` (configuration not stated), the Potency was active: 12.6 µM.
For `COc1ccc(NS(=O)(=O)c2ccc(O)c(NC(=O)c3cc4c(C)nn(-c5ccc(F)cc5)c4s3)c2)cc1`, the Potency was active: 22.4 µM.
For `N#CC1=C2SCN(Cc3ccco3)CN2C(=O)CC1c1c(F)cccc1Cl` (configuration not stated), the Potency was inconclusive: 20 µM [inhibitor, single point].
With `CCC(c1nnnn1CCOC)N(Cc1cc2c(C)cc(C)cc2[nH]c1=O)CC1CCCO1` (configuration not stated) the “activity, negative = inhibition” value was inactive: -11.2%.
With `CN1/C(=C\C(=O)C[n+]2cccc(Br)c2)C(C)(C)c2ccccc21` the Potency was active: 12.6 µM.
In the case of `Cc1ccc(C(=O)NC2CCCCC2)cc1S(=O)(=O)N1CCCC1`, the “activity, negative = inhibition” value is reported as inactive: 8.23%.
With `CN1Cc2c(N3CCOCC3)nc3sc(C(=O)c4ccc(Br)cc4)c(N)c3c2CC1(C)C` the Potency was inconclusive: 28.2 µM [inhibitor, single point].
For `Cc1cc(C)c(OCC(=O)Nc2cccc(O)c2)cc1C`, the Potency was inconclusive: 12.6 µM [inhibitor, partial curve].
For `CCN(CC)c1ccc(/C=N\NC(N)=O)cc1`, the “activity, negative = inhibition” value was inactive: 8.04%.
For `O=C(Nc1ccc(Cl)cc1)Nc1csc([N+](=O)[O-])c1`, the Potency was inconclusive: 35.5 µM [inhibitor, single point].
With `O=C(Nc1ccc(-c2nc3ncccc3o2)cc1)c1ccc([N+](=O)[O-])o1` the Potency was inconclusive: 0.562 µM [inhibitor, single point].
With `O=S(=O)(c1cccc(NC(=S)N2CCN(c3ccccc3F)CC2)c1)C(F)F` the Potency was inconclusive: 35.5 µM [inhibitor, single point].
With `CCOC(=O)C1=C(Cc2ccc(Cl)cc2)C(=O)c2ccccc2C1=O` the Potency was inconclusive: 22.4 µM [inhibitor, single point].
In the case of `O=C(Nc1ccccc1-c1ccccc1)c1cc(C(F)(F)F)cc(C(F)(F)F)c1`, the Potency is reported as inconclusive: 22.4 µM [inhibitor, partial curve, poor fit].
With `CC(C)(C)c1ccc(-n2ncc3c2CCCC3NC(=O)c2csnn2)cc1` (configuration not stated) the Potency was inconclusive: 25.1 µM [inhibitor, partial curve, poor fit].
For `COc1cccc(NC(=O)c2cnn(-c3ccccc3)c2C)c1`, the Potency was inconclusive: 10 µM [inhibitor, single point].
For `COc1ccc(N(CC(=O)Nc2cccc(SC)c2)S(C)(=O)=O)cc1`, the Potency was inconclusive: 11.2 µM [activator, partial curve].
For `O=C(CSc1ncnc2ccccc12)c1ccco1`, the Potency was inconclusive: 3.16 µM [activator, partial curve].
With `CNC(=O)NC(=O)CSc1nc2cc(C(=O)OC)ccc2c(=O)n1-c1ccccc1` the Potency was active: 22.4 µM.
In the case of `COc1ccc(Cc2nnc(NC(=O)c3c(-c4ccccc4)noc3C)s2)cc1`, the Potency is reported as inconclusive: 35.5 µM [inhibitor, single point].
In the case of `Cc1ccccc1/C=N/n1c(COc2ccccc2)n[nH]c1=S`, the Potency is reported as inconclusive: 11.2 µM [inhibitor, partial curve].
For `COc1cccc2sc(N(CCCN(C)C)C(=O)c3ccc(S(=O)(=O)N4CCCc5ccccc54)cc3)nc12`, the Potency was inconclusive: 35.5 µM [inhibitor, single point].
In the case of `Cc1cc(Cl)c(S(=O)(=O)N2CCCC2)cc1OCC(=O)NC1CCCCC1`, the Potency is reported as inconclusive: 35.5 µM [inhibitor, single point].
With `CCOc1cc(NC(=O)c2ccccc2OC)c(OCC)cc1NC(=O)c1ccccc1` the “activity, negative = inhibition” value was inactive: -15.7%.
For `Cn1nc(CC(=O)Nc2cccc3ncccc23)c2ccccc2c1=O`, the Potency was inconclusive: 35.5 µM [inhibitor, single point].
In the case of `O=C1C=C(Nc2ccc(Cl)cc2Cl)CC(c2ccco2)C1` (configuration not stated), the “activity, negative = inhibition” value is reported as inactive: -7.78%.
For `CCOc1ccc(N/C(C)=C\C(=O)c2ccc3c(c2)OCCO3)cc1`, the Potency was inconclusive: 4.47 µM [inhibitor, single point].
With `CC(=O)c1c(C(C)=O)c(C)n(-c2ccc(O)cc2)c1C` the “activity, negative = inhibition” value was inactive: 17.7%.
In the case of `CCn1c(C)cc(/C=C2/SC(=S)N(CC(=O)O)C2=O)c1C`, the Potency is reported as inconclusive: 22.4 µM [inhibitor, single point].
With `O=C(NC1=NCCS1)c1cc(-c2ccc(F)cc2)nc2ccccc12` the Potency was active: 11.2 µM.
For `Cc1ccc(-n2cc(C(=O)c3ccc(N4CCN(C)CC4)cc3)nn2)cc1Cl`, the “activity, negative = inhibition” value was inactive: 4.24%.
With `O=C(NC(=S)Nc1cccc2ncccc12)c1ccccc1` the Potency was inconclusive: 20 µM [inhibitor, partial curve, poor fit].
In the case of `Cc1c(O)ccc2c(CC(=O)N[C@@H](Cc3ccccc3)C(=O)O)cc(=O)oc12`, the “activity, negative = inhibition” value is reported as inactive: 1.48%.
In the case of `O=C(COc1ccc(Cl)cc1Br)N1CCN(S(=O)(=O)c2ccccc2)CC1`, the “activity, negative = inhibition” value is reported as inactive: 1.43%.
In the case of `CCOc1cccc(-c2cc(-c3n[nH]c(=S)n3CC)c3ccccc3n2)c1`, the Potency is reported as inconclusive: 12.6 µM [inhibitor, partial curve, poor fit].
With `C=CCOc1ccc(C=Nc2cccc(Cl)c2)c(O)c1` the “activity, negative = inhibition” value was inactive: -25.2%.
With `CCOn1c(=O)c(-c2cccc([N+](=O)[O-])c2)[n+]([O-])c2ccccc21` the “activity, negative = inhibition” value was inactive: -4.19%.
In the case of `C/C(=N/NC(=O)c1cccs1)c1c(C)[nH]n(-c2nc3ccccc3s2)c1=O`, the Potency is reported as active: 2 µM.
In the case of `Cc1cnc(CNc2cc(-c3ccccc3C)ncn2)cn1`, the “activity, negative = inhibition” value is reported as inactive: 24.8%.
For `CCC(C)C(NC(=O)c1ccccc1NC(=O)c1ccco1)C(=O)NNC(=O)c1ccc(OC)cc1` (configuration not stated), the “activity, negative = inhibition” value was inactive: -15.3%.
With `COc1ccc(NC(=S)NCCc2ccccc2)c(OC)c1` the Potency was active: 17.8 µM.
In the case of `COc1ccc(OC)c(-n2c(C)cc(/C=C3\C(=N)N4N=C(CC(=O)N5CCOCC5)SC4=NC3=O)c2C)c1`, the “activity, negative = inhibition” value is reported as inactive: -2.55%.
For `CCOc1cc(C(=O)Nc2cc(C)ccn2)cc(OCC)c1OCC`, the Potency was inconclusive: 35.5 µM [inhibitor, single point].
For `c1ccc(-c2nc3ccccc3s2)nc1`, the Potency was inconclusive: 7.94 µM [inhibitor, single point] and inconclusive: 35.5 µM [inhibitor, single point].
With `Cc1cc(C(=O)Nc2ncn(Cc3ccc(F)cc3)n2)ccc1[N+](=O)[O-]` the Potency was inconclusive: 25.1 µM [inhibitor, single point].
For `COC(=O)C(=C/C(C)=C/c1cccnc1)C(=O)OC`, the Potency was inconclusive: 17.8 µM [inhibitor, single point].
For `COc1ccc(C(=O)NC(=S)NCCO)cc1Br`, the Potency was active: 1.12 µM.
In the case of `O=C(Nc1ccc(S(=O)(=O)NCc2cccnc2)cc1)c1ccccc1Cl`, the Potency is reported as inconclusive: 1 µM [inhibitor, single point].
